Test results taken from the supplement of paper PMC6206098.
± gives the uncertainty stated by the source. Shown are siRNA guide strands that differ only in the seed, positions 2 to 7.

Assays:
[1] = system: H460; test: cell viability relative to lipid-only control; higher = less toxic; conditions: concentration: 10 nM; 96 h; Homo sapiens
[2] = system: M565; test: as above; conditions: concentration: 10 nM; 96 h; Mus musculus
[3] = system: HeyA8; test: as above; conditions: concentration: 10 nM; 96 h; Homo sapiens
[4] = system: 3LL; test: cell viability relative to siNT1 control; HeyA8 human ovarian and H460 human lung cancer; M565 mouse liver and 3LL mouse lung cancer; siNT1 is a non-toxic control siRNA; higher = less toxic; conditions: concentration: 10 nM; 96 h; Mus musculus;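 note: Luminescence-based viability of cells reverse transfected in 384-well plates with lipid-complexed siRNAs built on a non-toxic 19mer backbone whose passenger strand carries 2′-O-methyl groups at positions 1 and 2, triplicates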
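Throughout, for cell viability relative to lipid-only control: reverse lipid transfection in 384-well plates, in triplicate, of duplexes on a non-toxic 19mer backbone with passenger strand 2′-O-methylated at positions 1 and 2, luminescence viability read-out.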

Row | Sequence | cell viability [1] | cell viability [2] | cell viability [3] | cell viability [4]
1 | UACGCUCACAUGUAAACCAAA | 64.6 ± 8.7% | 68.8 ± 20% | 74.9 ± 5.8% | 17.1 ± 7.9%
2 | UUCGCUAACAUGUAAACCAAA | 77.4 ± 14% | 104 ± 2% | 89.9 ± 9.8% | 107 ± 15%
3 | UCGAAACACAUGUAAACCAAA | 76.4 ± 9% | 67.4 ± 3.4% | 71.7 ± 9.7% | 88.8 ± 22%
4 | UCCUGGCACAUGUAAACCAAA | 17.7 ± 2.6% | 8.76 ± 0.79% | 9.86 ± 0.21% | 30.1 ± 6.1%
5 | UGGAUUGACAUGUAAACCAAA | 61.9 ± 8.6% | 40.1 ± 7.9% | 70.2 ± 4.9% | 95.5 ± 11%
6 | UGGCUCUACAUGUAAACCAAA | 11.4 ± 2.7% | 29.9 ± 6.1% | 3.8 ± 0.36% | 7.55 ± 0.72%
7 | UUCCGAUACAUGUAAACCAAA | 80.1 ± 7.3% | 69.4 ± 14% | 88.3 ± 13% | 65.8 ± 12%
8 | UGAGAAUACAUGUAAACCAAA | 71.3 ± 6.9% | 46.9 ± 6% | 79.1 ± 1.2% | 69.8 ± 16%
9 | UUCCCCGACAUGUAAACCAAA | 90.8 ± 7.6% | 22.22 ± 0.15% | 84.5 ± 8% | 69.3 ± 10%
10 | UCGAUAUACAUGUAAACCAAA | 86.9 ± 16% | 75.2 ± 11% | 84.1 ± 4.1% | 84.8 ± 20%
11 | UAGAAUUACAUGUAAACCAAA | 61.7 ± 0.93% | 78.8 ± 6.1% | 65.2 ± 2.9% | 78.6 ± 17%
12 | UGCUCGAACAUGUAAACCAAA | 57 ± 0.9% | 73.5 ± 7.5% | 65.6 ± 8.4% | 81.9 ± 14%
13 | UGCCGGCACAUGUAAACCAAA | 29.4 ± 3.2% | 16.3 ± 1.4% | 6.33 ± 0.3% | 27.6 ± 0.57%
14 | UACCCAUACAUGUAAACCAAA | 61.9 ± 9.6% | 37.6 ± 8.4% | 33.8 ± 6.5% | 70.4 ± 8.1%
15 | UCUUCAAACAUGUAAACCAAA | 68.1 ± 12% | 78.1 ± 15% | 84.9 ± 8.2% | 93.6 ± 15%
16 | UACAUGGACAUGUAAACCAAA | 45.2 ± 2.2% | 35.2 ± 2.9% | 62.5 ± 5.7% | 45.2 ± 1.8%
17 | UUAUGCAACAUGUAAACCAAA | 42.4 ± 6.5% | 63.2 ± 6.7% | 53.2 ± 1.7% | 47.1 ± 9.4%
18 | UGCGCGGACAUGUAAACCAAA | 40.7 ± 2.8% | 47.9 ± 4.3% | 44.7 ± 4.3% | 54.7 ± 13%
19 | UGGUCAAACAUGUAAACCAAA | 31.8 ± 2.9% | 93.7 ± 22% | 58.9 ± 3.7% | 92.7 ± 7%
20 | UUUGUUUACAUGUAAACCAAA | 84.1 ± 5.3% | 96.9 ± 5.5% | 95.1 ± 2.4% | 98 ± 3.7%

Row | Sequence | cell viability [1] | cell viability [2] | cell viability [3] | cell viability [4]
21 | UCAUCUUACAUGUAAACCAAA | 39.3 ± 5.6% | 65.3 ± 6.9% | 66.9 ± 4.4% | 83.4 ± 14%
22 | UAUGCACACAUGUAAACCAAA | 59.1 ± 10% | 86.4 ± 8.6% | 50.2 ± 2.3% | 65.6 ± 14%
23 | UUGGAGUACAUGUAAACCAAA | 75 ± 5.4% | 26.3 ± 2.9% | 71.6 ± 6.1% | 58.2 ± 6%
24 | UCCAAAUACAUGUAAACCAAA | 66.7 ± 14% | 62.4 ± 19% | 69.7 ± 1.9% | 86.9 ± 26%
25 | UACGUAAACAUGUAAACCAAA | 67.1 ± 7.6% | 80.6 ± 7.8% | 96.3 ± 7% | 90.3 ± 9.6%
26 | UACUUGAACAUGUAAACCAAA | 65.9 ± 2.5% | 45.4 ± 5.7% | 66.5 ± 3.3% | 66.2 ± 6%
27 | UGUGCUUACAUGUAAACCAAA | 72.2 ± 21% | 60.5 ± 11% | 83.9 ± 7.7% | 69.8 ± 5.5%
28 | UCGAACCACAUGUAAACCAAA | 56.7 ± 5.4% | 51.7 ± 2.1% | 73.8 ± 4% | 62.2 ± 15%
29 | UCGUCGCACAUGUAAACCAAA | 43 ± 3.5% | 46.1 ± 2.2% | 18.9 ± 1.3% | 50.8 ± 12%
30 | UGAACCCACAUGUAAACCAAA | 64.4 ± 2.9% | 28.5 ± 2.2% | 65.7 ± 8.3% | 59 ± 13%
31 | UUACGACACAUGUAAACCAAA | 56.5 ± 7.6% | 85.9 ± 13% | 69.8 ± 1.8% | 87.6 ± 8.6%
32 | UAUGAUCACAUGUAAACCAAA | 52 ± 4.2% | 35.9 ± 8.4% | 61.3 ± 1.1% | 77.3 ± 10%
33 | UCCGUAUACAUGUAAACCAAA | 61.4 ± 15% | 90.9 ± 23% | 74.7 ± 2.6% | 106 ± 25%
34 | UUCUGGAACAUGUAAACCAAA | 69.3 ± 9.3% | 29 ± 3% | 85.1 ± 4.5% | 47.9 ± 1%
35 | UGCCCGCACAUGUAAACCAAA | 46.8 ± 1.2% | 55.3 ± 4.4% | 28.3 ± 2.6% | 47.1 ± 7%
36 | UCGUAGUACAUGUAAACCAAA | 48.2 ± 1.2% | 71.8 ± 5% | 31.1 ± 2.5% | 85.6 ± 5.9%
37 | UGGCUAGACAUGUAAACCAAA | 30.6 ± 4.4% | 24.5 ± 3.2% | 7.68 ± 1.3% | 55.2 ± 7.2%
38 | UAGUGGGACAUGUAAACCAAA | 37.7 ± 3.9% | 18.5 ± 3.7% | 3.8 ± 0.29% | 5.58 ± 1.2%
39 | UGUACUUACAUGUAAACCAAA | 69.5 ± 6.6% | 78.8 ± 8.6% | 64.8 ± 4.6% | 71.3 ± 12%
40 | UCUGGCGACAUGUAAACCAAA | 75.9 ± 9.7% | 41.9 ± 9.2% | 94.6 ± 12% | 97.8 ± 11%

Row | Sequence | cell viability [1] | cell viability [2] | cell viability [3] | cell viability [4]
41 | UCGUAGGACAUGUAAACCAAA | 62.1 ± 8.1% | 57.1 ± 6.7% | 37.7 ± 6.3% | 86.9 ± 5.5%
42 | UGACGUCACAUGUAAACCAAA | 54.3 ± 3.8% | 15.2 ± 4.3% | 95.8 ± 7.9% | 56 ± 8.7%
43 | UAUGUACACAUGUAAACCAAA | 46.2 ± 6.4% | 63.3 ± 12% | 54.5 ± 6.7% | 59.8 ± 2.7%
44 | UUCGGCUACAUGUAAACCAAA | 52.8 ± 0.8% | 63 ± 2.7% | 50.7 ± 10% | 96.4 ± 9.2%
45 | UAUUAGAACAUGUAAACCAAA | 100 ± 9.2% | 89.9 ± 5.4% | 96 ± 9.9% | 110 ± 20%
46 | UGGGUCCACAUGUAAACCAAA | 25.2 ± 2.1% | 9.06 ± 1.3% | 8.1 ± 0.68% | 19.8 ± 2.3%
47 | UCGAAGCACAUGUAAACCAAA | 51.4 ± 2.9% | 43.8 ± 5.1% | 29.7 ± 2.8% | 84.4 ± 18%
48 | UAUACGUACAUGUAAACCAAA | 94 ± 23% | 97.8 ± 14% | 98.4 ± 3.7% | 104.9 ± 1%
49 | UAACACCACAUGUAAACCAAA | 43.2 ± 6.1% | 49.2 ± 3.7% | 28.1 ± 0.83% | 54.4 ± 9.4%
50 | UCCAGCCACAUGUAAACCAAA | 16.3 ± 2.4% | 6.65 ± 1.9% | 11.5 ± 0.81% | 17.4 ± 3.5%
51 | UGUCCAGACAUGUAAACCAAA | 48.9 ± 14% | 22.6 ± 3.1% | 51.4 ± 3.3% | 65.5 ± 9%
52 | UCCUCGGACAUGUAAACCAAA | 57.3 ± 9.3% | 56.2 ± 7.4% | 80.4 ± 5.5% | 90.7 ± 21%
53 | UUAGGUUACAUGUAAACCAAA | 72.2 ± 2.9% | 67.4 ± 17% | 61.6 ± 1.6% | 81.3 ± 4.3%
54 | UCACAAUACAUGUAAACCAAA | 34.9 ± 5.6% | 73.3 ± 13% | 87.3 ± 5.1% | 89.7 ± 14%
55 | UUGAAGUACAUGUAAACCAAA | 42.2 ± 12% | 52.3 ± 10% | 50.7 ± 4.3% | 34 ± 11%
56 | UAAGGACACAUGUAAACCAAA | 46.6 ± 11% | 48.1 ± 2.9% | 35.8 ± 0.58% | 32.5 ± 2.6%
57 | UCAUCAAACAUGUAAACCAAA | 60.6 ± 7.8% | 55.4 ± 9.3% | 42.9 ± 4.4% | 82.3 ± 18%
58 | UACCAAAACAUGUAAACCAAA | 52.9 ± 6.4% | 68.6 ± 5.2% | 88.3 ± 6.3% | 91.1 ± 4.9%
59 | UACGCUUACAUGUAAACCAAA | 107 ± 2.3% | 54.8 ± 6.7% | 73.3 ± 7.8% | 61.9 ± 11%
60 | UGAGUUCACAUGUAAACCAAA | 69.2 ± 6.7% | 22.9 ± 4.1% | 33.5 ± 10% | 55.2 ± 14%
